Patent publication EP1214397B1, “METHOD FOR THE SELECTIVE PROTECTION OF PROLIFERATING NORMAL CELLS AND THE SELECTIVE ERADICATION OF TUMOR CELLS HAVING AN INACTIVE P53 PATHWAY” (UNIVERSITA' DEGLI STUDI DI ROMA "LA SAPIENZA", priority 1999, dated 2001)

Tests used:
normal cells = assay: Dose/response: concentration arresting normal cells in the intermitotic phase (CAP); format: cell-based; conditions: standard conditions
Protocol: It generally results in cell cycle arrest at the binucleate stage in at least 40% of class A compounds treated proliferating normal cells, using the minimal drug concentration (i.e. sufficient to reversible induce its effects, on target cells, without causing significant damage, experimentally defined by dose/response curves), giving the above result without significant toxicity and an incubation time generally ranging from 12 to 48 hours depending on cell type.
As to the CAP parameter, the corresponding value is a class A compound concentration causing the arrest of at least the 40% of normal cells in the intermitotic stage; such concentration is experimental deduced by dose/response experiments that define the appropriate value range for different cell types and compounds.
For the above class A compounds, under standard conditions this value ranges within 1 nM to 40 µM concentrations.. Under standard conditions for instance, the CAP value for cytochalasin D is preferably comprised within the range 20 nM-2 µM, and in a preferred embodiment it is of 400 nM.; for the dihydrocytochalasin B, it is comprised in the range 600 nM - 8µM, and in a preferred embodiment it is of 2µM; for the jasplakinolide, it is comprised in the range 50 nM - 3µM and in a preferred embodiment it is of 700nM; for the latrunculin B it is comprised in the range 500nM - 2 µM and in a preferred embodiment it is of 650nM; for the chondramide B, it is comprised in the range 10 - 800 nM and in a preferred embodiment it is of 100nM. Said preferred concentrations are the CAP value corresponding to the minimum concentration under standard conditions required for reaching the arrest in intermitotic phase of the normal cells to be protected (minimum functional concentration), but could also be higher.
In the light of these tests, the CAP and CACT values to be assigned to several class A compounds as the concentration range yielding the cytodieresis arrest, and, within said concentration range, the value of the minimum concentration required for attaining this effect, forming the preferred embodiment, has been determined. These values are those reported in the summary of the invention.

[1] = test system: Lipari, T97 and U973 glioblastomas; assay: Nucleation state of human tumor cells after class A compounds (Example 12); format: cell-based; conditions: 48 h; 400 nM cytochalasin D, 650 nM Latrunculin B, 700 nM Jasplakinolide, 100 nM Chondramide B
Protocol: All the assays above described, have been carried out in a system specifically designed to reproduce pathological situations in human beings in vivo.
Culture and experimental conditions are identical to those reported in example 1, except in that the cells used were Lipari, T97 and U973 glioblastomas and that nucleation state data were observed after the following treatments.
In a first assay series, 400 nM cytochalasin D for 48 h (T0-T48), along with BrdU (T24-48) in the final 24 h for controlling the percentage of cells capable of entering S phase, has been administered to Lipari, T97 and U973 cells.
In a second assay series, 650 nM Latrunculin B for 48 h (T0-T48) along with BrdU (T24-48) in the final 24 h for controlling the percentage of cells capable of entering S phase, has been administered to Lipari (Line 11), T97 (Line 12) and U973 (Line 13) cells.
In a third assay series, 700 nM Jasplakinolide for 48 h (T0-T48), along with BrdU (T24-48) in the final 24 h for controlling the percentage of cells capable of entering S phase, has been administered to Lipari (Line 14), T97 (Line 15) and U973 (Line 16) cells.
In a fourth assay series, 100 nM Chondramide B for 48 h (T0-T48), along with BrdU (T24-48) in the final 24 h for controlling the percentage of cells capable of entering S phase, has been administered to Lipari (Line 17), T97 (Line 18) and U973 (Line 19) cells.

[2] = test system: C3H10T1/2v-src/v-myc cells; format: cell-based, mouse; conditions: 4µCi/ml tritiated thymidine 5 h after 24 h drug (3000 nM CB, 400 nM CD, 650 nM Latrunculin B, 700 nM Jasplakinolide, 100 nM Condramide); control 505 cpm/µg
Source text: In order to verify a possible interference on 3FT uptake by tumor cells, the compounds mentioned in example 7 have been assayed on C3H10T1/2v-src/v-myc cells, measuring the uptake of tritiated thymidine. It is well known in fact that the uptake mechanism of the latter and that of 3FT (and generally of antimetabolites) are the same (6).
Cells have been plated in a 24-well plate, with a 5x10^4 cells/well and the assays have been carried out under standard culture conditions, as described in example 1.
In a first assay 3000 nM CB for 24 h, in a second assay 400 nM CD for 24 h, in a third assays 650 nM Latrunculin B for 24 h, in a fourth assay 700 nM Jasplakinolide for 24 h and in a fifth assay 100 nM Condramide for 24 h, have been administered on the C3H10T1/2v-src/v-myc.
After said administrations, a 4µCi/ml tritiated Thymidine uptake has been carried out for 5 h for each assay, the above mentioned compounds being still present. Cells have been therefore washed 2x with PBS, extracted with 5% cold trichloroacetic acid and subsequently NaOH-lysed.
The various samples once additioned with scintillation liquid, have been analyzed in a β-counter. The emission values, normalized for the amount of proteins in each sample (quantified by Lowry method) are expressed in count values for min/microgram protein in column 3. As controls there have been considered: • a first C3H10T1/2v-src/v-myc cell culture let free to proliferate for the overall assay (12 h + 24 h + 5 h) the radioactivity thereof being determined at the β-counter. • a second C3H10T1/2v-src-myc cell culture let free to proliferate for the initial 12 h and for the pharmacological treatment assay (12 h + 24 h), then subjected to the uptake of 4µCi/ml tritiated thymidine for 5 h and subsequently subjected to uptake determination at the β-counter.

CO[C@@H]1C(=O)O[C@H](C)[C@@H](C)C=C(C)C[C@H](C)C(=O)N[C@@H](C)C(=O)N(C)[C@H](Cc2c(Cl)[nH]c3ccccc23)C(=O)NC1c1ccc(O)cc1 (stereo partly drawn) [Chondramide B]
CAP, minimum functional concentration for arrest in intermitotic phase of normal cells (normal cells): 100 nM
multinucleation of human tumor cells [1]: induces multinucleation of tumor cells
tritiated thymidine uptake, emission values [2]: 562 cpm/µg
